# The other results are listed elsewhere or left out. At the low end of the ranking the order means little.
# Target: SIX1-Q177R homeodomain (UniProt Q15475)
# Test: universal protein binding microarray
# Settings: Universal all-10-mer PBM (8x60K, AMADID 030236), 300 nM GST-tagged protein, Alexa Fluor 488 anti-GST; buffer, salt, pH and temperature not stated; high values mean tight binding; most listed sequences are background and not binding sites; double strand, one strand shown
row,Sequence,binding signal [E-score]
1,AAAAGCAC,-0.0119
2,CGGCTAAA,-0.112
3,CATTAGGG,-0.192
4,TCATGCGA,-0.0853
5,CAGACAGA,0.0258
6,ACCTGACG,0.00449
7,GATTAGGC,-0.0937
8,TACAAAGA,-0.195
9,AAGGGGAG,-0.0209
10,AGATCGGC,0.102
11,TCAGGCCA,-0.0625
12,CCAGTGAG,-0.0897
13,GCCAGGAC,-0.168
14,ATTGATAG,-0.0988
15,GACACAGC,0.17
16,GAGGTTCC,-0.0623
17,GATAGGCA,-0.215
18,GCCACGGC,-0.0357
19,ACGCCACC,0.194
20,ATCCAGAT,-0.118
21,AATCGCGA,-0.0571
22,GCTCCAGC,-0.0805
23,CCGAAAAC,-0.0125
24,TTAACCAA,0.0733
25,ACAAGCTC,-0.101

row,Sequence,binding signal [E-score]
1,GAATGTGC,-0.179
2,CTAAGGAC,0.0508
3,ATGTAGTG,0.141
4,AAGCCCCT,-0.0344
5,ATTAGCCA,-0.0843
6,CTAAGCTA,-0.209
7,ATCTCCGA,-0.0658
8,AACAAATA,-0.00654
9,AAACTTGC,-0.126
10,CTTGCCGA,-0.00545
11,CGGGAATA,0.181
12,ATGTCGCG,-0.139
13,ATGCTGAC,0.0738
14,ACAAATCG,-0.0604
15,AAATAAGT,-0.122
16,GGTGTTTA,0.456
17,AAGATGTC,-0.104
18,CTGGTTGA,-0.182
19,ACGTATCT,-0.0121
20,AATAATAC,0.00888
21,TATCTCAA,0.0703
22,ATCCAAGC,0.0595
23,AAAAATTT,-0.256
24,ACCCTGCC,0.0923
25,AACTCGAT,-0.02

row,Sequence,binding signal [E-score]
1,CGGGACCG,-0.158
2,TGCATTAA,0.113
3,CAACAAGG,0.0233
4,TAGTCGGA,-0.0444
5,AGGTAAAG,-0.0467
6,AACGAAGC,-0.201
7,GATTGCAC,0.027
8,ACGACTCC,0.309
9,CGAAGAAC,-0.00916
10,AGATGTTG,-0.258
11,CTCGGTGC,0.164
12,CCCAGTTC,-0.0676
13,CAAACACG,0.32
14,ACCATGGC,-0.00258
15,AGCCGGGA,-0.107
16,GTAACGAA,-0.124
17,GTCACGAC,0.164
18,CGAATCTC,-0.0775
19,CAACACGC,0.363
20,CGTACCAG,-0.0877
21,ACACACCA,0.415
22,ACATCGCA,0.022
23,AGGTCTGG,-0.119
24,TTCCTAAA,-0.208
25,CCAATCGG,0.0357

row,Sequence,binding signal [E-score]
1,ACCGTCAG,0.0571
2,CCGTAGGA,-0.0513
3,ACTGCGAT,0.117
4,AATTCCTC,-0.246
5,ACTCCCAG,0.262
6,GTATCAAC,0.256
7,AGGGGCGA,0.0418
8,TTCATCAA,-0.14
9,AGTTCTAG,-0.184
10,ACTCGAAC,0.0178
11,GATATTCA,-0.289
12,AGCCGTGC,0.0659
13,AACCTTTA,-0.148
14,TAGAGCTA,-0.0216
15,ATTTACAG,-0.156
16,CCCTTCCC,0.181
17,AGTCGCTC,-0.0228
18,ACGCCATC,-0.0336
19,GAGCACTA,-0.151
20,CCAGCGGG,0.0601
21,ACTGGCTG,0.132
22,CGCGTGTC,0.414
23,TCCTCACA,0.142
24,GAGAACTC,-0.0893
25,CCCTACCC,0.185

row,Sequence,binding signal [E-score]
1,ACGCTGCG,0.0139
2,AATCATAC,-0.0763
3,ACCCACAG,0.217
4,AGTTACTA,-0.168
5,AATCAATA,-0.0975
6,CCAACCCC,0.113
7,CATGAGAC,-0.0249
8,CGATGAAG,-0.0359
9,AAATACAC,0.403
10,GACACCCC,0.487
11,AAAGGCTA,-0.287
12,AGAGAGAC,-0.126
13,GAATACTC,0.0477
14,CCAATCAC,-0.185
15,GGAAAATA,-0.0264
16,AGTGGGAT,0.0827
17,AGGCTGAT,-0.0609
18,AAGACACC,0.471
19,CCAATGAC,0.0886
20,GTACTGAC,0.172
21,GACCGTGC,-0.119
22,ACAATCCT,-0.104
23,ACTTGGAC,0.0379
24,GCGGTGGA,0.0097
25,AGATTTTC,-0.298

row,Sequence,binding signal [E-score]
1,AGCAGGTG,0.335
2,AGCACAAA,-0.19
3,ACCTTTGA,0.142
4,AACAGTAC,-0.112
5,ATCGCACC,0.201
6,GGGCGTGA,0.138
7,AGAATCCC,-0.102
8,AGGACCTG,-0.0705
9,ATGCCGTG,0.0145
10,CCCATTGA,-0.0596
11,AGACTTCA,-0.146
12,AGCTCTGC,-0.247
13,GGCTTCGA,-0.205
14,AGTATCGA,0.118
15,ACCACGCC,-0.0624
16,ATGTAGCC,-0.13
17,CGGAGACC,-0.0715
18,ATCCTTGG,0.0942
19,ACGTGTCA,0.412
20,CCTTGAAA,-0.0723
21,GCGAGAGC,-0.202
22,GCAGAGGC,-0.136
23,CCAAGGGG,0.141
24,AACCCGAT,0.0773
25,GAGCGCAC,-0.175

row,Sequence,binding signal [E-score]
1,AATCCTGC,-0.0533
2,AACCCCAA,0.205
3,AGTTGTGG,0.0218
4,CCAGTTAA,-0.0324
5,CCCGTCCG,-0.0323
6,ATAAGTCC,-0.311
7,GAACCTGA,-0.074
8,ACTCCTTC,0.0558
9,GACAGCGC,-0.228
10,GTCAATTA,-0.00902
11,CGAGAGCA,0.0136
12,CTTGCTTA,-0.0101
13,CGGCCCCG,-0.236
14,CATGTCGG,0.0377
15,GGAGATTA,-0.00214
16,CGGGTTCC,0.239
17,ATCTAAGA,-0.328
18,CGAGATGC,-0.167
19,GGACCCAC,0.0449
20,TATCCAGA,-0.0383
21,ATGGTGCC,0.115
22,CGGTCATC,-0.106
